{"source": "the supplement of paper PMC8728848", "experiment_in_all_cases": "glycan array binding signal (z-score within array); higher = stronger binding", "conditions_in_all_cases": "glycan notation: IUPAC condensed, linker removed; mutation: R186I", "key": {"[1]": {"target": "Fuc(a1-2)Gal", "procedure,_shortened": "(§1)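 The binding signal is a Z-score computed within each array. Data were drawn from 3228 arrays in the Consortium for Functional Glycomics database, restricted to those with a known protein sequence. Scores were averaged over arrays of the same protein sequence at different concentrations or buffers, and over linkers, and negative values can be taken as non-binding.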"}, "[2]": {"target": "Fuc(a1-2)Gal(b1-3)GalNAc", "procedure,_shortened": "as §1"}, "[3]": {"target": "Fuc(a1-2)Gal(b1-3)GalNAc(a1-3)[Fuc(a1-2)]Gal(b1-4)Glc", "procedure,_shortened": "as §1"}, "[4]": {"target": "Fuc(a1-2)Gal(b1-3)GalNAc(a1-3)[Fuc(a1-2)]Gal(b1-4)GlcNAc", "procedure,_shortened": "as §1"}, "[5]": {"target": "Fuc(a1-2)Gal(b1-3)GalNAc(b1-3)Gal", "procedure,_shortened": "as §1"}, "[6]": {"target": "Fuc(a1-2)Gal(b1-3)GalNAc(b1-3)Gal(a1-4)Gal(b1-4)Glc", "procedure,_shortened": "as §1"}, "[7]": {"target": "Fuc(a1-2)Gal(b1-3)GalNAc(b1-4)[Neu5Ac(a2-3)]Gal(b1-4)Glc", "procedure,_shortened": "as §1"}, "[8]": {"target": "Fuc(a1-2)Gal(b1-3)GlcNAc", "procedure,_shortened": "as §1"}, "[9]": {"target": "Fuc(a1-2)Gal(b1-3)GlcNAc(b1-2)Man(a1-3)[Fuc(a1-2)Gal(b1-3)GlcNAc(b1-2)Man(a1-6)]Man(b1-4)GlcNAc(b1-4)GlcNAc", "procedure,_shortened": "as §1"}, "[10]": {"target": "Fuc(a1-2)Gal(b1-3)GlcNAc(b1-3)Gal(b1-4)Glc", "procedure,_shortened": "as §1"}, "[11]": {"target": "Fuc(a1-2)Gal(b1-3)GlcNAc(b1-3)[Fuc(a1-3)[Gal(b1-4)]GlcNAc(b1-6)]Gal(b1-4)Glc", "procedure,_shortened": "as §1"}, "[12]": {"target": "Fuc(a1-2)Gal(b1-3)[Fuc(a1-4)]GlcNAc", "procedure,_shortened": "as §1"}, "[13]": {"target": "Fuc(a1-2)Gal(b1-3)[Fuc(a1-4)]GlcNAc(b1-2)Man(a1-3)[Fuc(a1-2)Gal(b1-3)[Fuc(a1-4)]GlcNAc(b1-2)Man(a1-6)]Man(b1-4)GlcNAc(b1-4)GlcNAc", "procedure,_shortened": "as §1"}, "[14]": {"target": "Fuc(a1-2)Gal(b1-3)[Fuc(a1-4)]GlcNAc(b1-3)[Fuc(a1-3)[Gal(b1-4)]GlcNAc(b1-6)]Gal(b1-4)Glc", "procedure,_shortened": "as §1"}, "[15]": {"target": "Fuc(a1-2)Gal(b1-3)[Fuc(a1-4)]GlcNAc(b1-3)[Gal(b1-4)GlcNAc(b1-6)]Gal(b1-4)Glc", "procedure,_shortened": "as §1"}, "[16]": {"target": "Fuc(a1-2)Gal(b1-4)Glc", "procedure,_shortened": "as §1"}, "[17]": {"target": "Fuc(a1-2)Gal(b1-4)Glc6S", "procedure,_shortened": "as §1"}, "[18]": {"target": "Fuc(a1-2)Gal(b1-4)GlcNAc", "procedure,_shortened": "as §1"}, "[19]": {"target": "Fuc(a1-2)Gal(b1-4)GlcNAc(b1-2)Man(a1-3)[Fuc(a1-2)Gal(b1-4)GlcNAc(b1-2)Man(a1-6)]Man(b1-4)GlcNAc(b1-4)GlcNAc", "procedure,_shortened": "as §1"}, "[20]": {"target": "Fuc(a1-2)Gal(b1-4)GlcNAc(b1-3)Gal(b1-4)GlcNAc", "procedure,_shortened": "as §1"}, "[21]": {"target": "Fuc(a1-2)Gal(b1-4)GlcNAc(b1-3)Gal(b1-4)GlcNAc(b1-3)Gal(b1-4)GlcNAc", "procedure,_shortened": "as §1"}, "[22]": {"target": "Fuc(a1-2)Gal(b1-4)GlcNAc(b1-3)GalNAc", "procedure,_shortened": "as §1"}, "[23]": {"target": "Fuc(a1-2)Gal(b1-4)GlcNAc6S", "procedure,_shortened": "as §1"}, "[24]": {"target": "Fuc(a1-2)Gal(b1-4)[Fuc(a1-3)]GlcNAc", "procedure,_shortened": "as §1"}, "[25]": {"target": "Fuc(a1-2)Gal(b1-4)[Fuc(a1-3)]GlcNAc(b1-2)Man(a1-3)[Fuc(a1-2)Gal(b1-4)[Fuc(a1-3)]GlcNAc(b1-2)Man(a1-6)]Man(b1-4)GlcNAc(b1-4)GlcNAc", "procedure,_shortened": "as §1"}, "[26]": {"target": "Fuc(a1-2)Gal(b1-4)[Fuc(a1-3)]GlcNAc(b1-3)Gal(b1-4)[Fuc(a1-3)]GlcNAc", "procedure,_shortened": "as §1"}, "[27]": {"target": "Fuc(a1-2)Gal(b1-4)[Fuc(a1-3)]GlcNAc(b1-3)Gal(b1-4)[Fuc(a1-3)]GlcNAc(b1-3)Gal(b1-4)[Fuc(a1-3)]GlcNAc", "procedure,_shortened": "as §1"}, "[28]": {"target": "Fuc(a1-2)Gal6S(b1-4)Glc", "procedure,_shortened": "as §1"}, "[29]": {"target": "Fuc(a1-2)Gal6S(b1-4)Glc6S", "procedure,_shortened": "as §1"}, "[30]": {"target": "Fuc(a1-2)Gal6S(b1-4)GlcNAc", "procedure,_shortened": "as §1"}, "[31]": {"target": "Fuc(a1-2)[Gal(a1-3)]Gal", "procedure,_shortened": "as §1"}, "[32]": {"target": "Fuc(a1-2)[Gal(a1-3)]Gal(b1-3)GlcNAc", "procedure,_shortened": "as §1"}, "[33]": {"target": "Fuc(a1-2)[Gal(a1-3)]Gal(b1-3)GlcNAc(b1-2)Man(a1-3)[Fuc(a1-2)[Gal(a1-3)]Gal(b1-3)GlcNAc(b1-2)Man(a1-6)]Man(b1-4)GlcNAc(b1-4)GlcNAc", "procedure,_shortened": "as §1"}, "[34]": {"target": "Fuc(a1-2)[Gal(a1-3)]Gal(b1-4)Glc", "procedure,_shortened": "as §1"}, "[35]": {"target": "Fuc(a1-2)[Gal(a1-3)]Gal(b1-4)GlcNAc", "procedure,_shortened": "as §1"}, "[36]": {"target": "Fuc(a1-2)[Gal(a1-3)]Gal(b1-4)GlcNAc(b1-2)Man(a1-3)[Fuc(a1-2)[Gal(a1-3)]Gal(b1-4)GlcNAc(b1-2)Man(a1-6)]Man(b1-4)GlcNAc(b1-4)GlcNAc", "procedure,_shortened": "as §1"}, "[37]": {"target": "Fuc(a1-2)[Gal(a1-3)]Gal(b1-4)[Fuc(a1-3)]GlcNAc", "procedure,_shortened": "as §1"}, "[38]": {"target": "Fuc(a1-2)[Gal(a1-4)]Gal(b1-4)GlcNAc", "procedure,_shortened": "as §1"}, "[39]": {"target": "Fuc(a1-2)[GalNAc(a1-3)]Gal", "procedure,_shortened": "as §1"}, "[40]": {"target": "Fuc(a1-2)[GalNAc(a1-3)]Gal(b1-3)GalNAc(a1-3)[Fuc(a1-2)]Gal(b1-4)GlcNAc", "procedure,_shortened": "as §1"}, "[41]": {"target": "Fuc(a1-2)[GalNAc(a1-3)]Gal(b1-3)GlcNAc", "procedure,_shortened": "as §1"}, "[42]": {"target": "Fuc(a1-2)[GalNAc(a1-3)]Gal(b1-3)GlcNAc(b1-2)Man(a1-3)[Fuc(a1-2)[GalNAc(a1-3)]Gal(b1-3)GlcNAc(b1-2)Man(a1-6)]Man(b1-4)GlcNAc(b1-4)GlcNAc", "procedure,_shortened": "as §1"}, "[43]": {"target": "Fuc(a1-2)[GalNAc(a1-3)]Gal(b1-4)Glc", "procedure,_shortened": "as §1"}, "[44]": {"target": "Fuc(a1-2)[GalNAc(a1-3)]Gal(b1-4)GlcNAc", "procedure,_shortened": "as §1"}, "[45]": {"target": "Fuc(a1-2)[GalNAc(a1-3)]Gal(b1-4)GlcNAc(b1-2)Man(a1-3)[Fuc(a1-2)[GalNAc(a1-3)]Gal(b1-4)GlcNAc(b1-2)Man(a1-6)]Man(b1-4)GlcNAc(b1-4)GlcNAc", "procedure,_shortened": "as §1"}}, "note": "This is one part of the list.", "data": [{"binder": "Gal 3 (Homo sapiens), P17931 (protein) MADNFSLHDALSGSGNPNPQGWPGAWGNQPAGAGGYPGASYPGAYPGQAPPGAYPGQAPPGAYHGAPGAYPGAPAPGVYPGPPSGPGAYPSSGQPSAPGAYPATGPYGAPAGPLIVPYNLPLPGGVVPRMLITILGTVKPNANILDFQRGNDVAFHFNPRFNENNRRVIVCNTKLDNNWGREEIQSVFPFESGKPFKIQVLVEPDHFKVAVNDAHLLQYNHRVKKLNEISKLGISGDIDLTSASYTMI", "values": [{"measurement": "glycan array binding signal (z-score)", "setting": "[1]", "result": -0.161}, {"measurement": "glycan array binding signal (z-score)", "setting": "[2]", "result": -0.183}, {"measurement": "glycan array binding signal (z-score)", "setting": "[3]", "result": -0.168}, {"measurement": "glycan array binding signal (z-score)", "setting": "[4]", "result": -0.176}, {"measurement": "glycan array binding signal (z-score)", "setting": "[5]", "result": -0.188}, {"measurement": "glycan array binding signal (z-score)", "setting": "[6]", "result": -0.055}, {"measurement": "glycan array binding signal (z-score)", "setting": "[7]", "result": -0.187}, {"measurement": "glycan array binding signal (z-score)", "setting": "[8]", "result": -0.17}, {"measurement": "glycan array binding signal (z-score)", "setting": "[9]", "result": -0.18}, {"measurement": "glycan array binding signal (z-score)", "setting": "[10]", "result": 0.493}, {"measurement": "glycan array binding signal (z-score)", "setting": "[11]", "result": -0.187}, {"measurement": "glycan array binding signal (z-score)", "setting": "[12]", "result": -0.187}, {"measurement": "glycan array binding signal (z-score)", "setting": "[13]", "result": -0.033}, {"measurement": "glycan array binding signal (z-score)", "setting": "[14]", "result": -0.123}, {"measurement": "glycan array binding signal (z-score)", "setting": "[15]", "result": -0.194}, {"measurement": "glycan array binding signal (z-score)", "setting": "[16]", "result": 0.019}, {"measurement": "glycan array binding signal (z-score)", "setting": "[17]", "result": -0.173}, {"measurement": "glycan array binding signal (z-score)", "setting": "[18]", "result": -0.174}, {"measurement": "glycan array binding signal (z-score)", "setting": "[19]", "result": 2.01}, {"measurement": "glycan array binding signal (z-score)", "setting": "[20]", "result": -0.118}, {"measurement": "glycan array binding signal (z-score)", "setting": "[21]", "result": -0.171}, {"measurement": "glycan array binding signal (z-score)", "setting": "[22]", "result": -0.081}, {"measurement": "glycan array binding signal (z-score)", "setting": "[23]", "result": -0.174}, {"measurement": "glycan array binding signal (z-score)", "setting": "[24]", "result": -0.13}, {"measurement": "glycan array binding signal (z-score)", "setting": "[25]", "result": -0.181}, {"measurement": "glycan array binding signal (z-score)", "setting": "[26]", "result": -0.145}, {"measurement": "glycan array binding signal (z-score)", "setting": "[27]", "result": -0.191}, {"measurement": "glycan array binding signal (z-score)", "setting": "[28]", "result": -0.189}, {"measurement": "glycan array binding signal (z-score)", "setting": "[29]", "result": -0.195}, {"measurement": "glycan array binding signal (z-score)", "setting": "[30]", "result": -0.189}, {"measurement": "glycan array binding signal (z-score)", "setting": "[31]", "result": -0.148}, {"measurement": "glycan array binding signal (z-score)", "setting": "[32]", "result": 1.19}, {"measurement": "glycan array binding signal (z-score)", "setting": "[33]", "result": 5.08}, {"measurement": "glycan array binding signal (z-score)", "setting": "[34]", "result": 0.759}, {"measurement": "glycan array binding signal (z-score)", "setting": "[35]", "result": -0.174}, {"measurement": "glycan array binding signal (z-score)", "setting": "[36]", "result": 10.8}, {"measurement": "glycan array binding signal (z-score)", "setting": "[37]", "result": -0.184}, {"measurement": "glycan array binding signal (z-score)", "setting": "[38]", "result": -0.099}, {"measurement": "glycan array binding signal (z-score)", "setting": "[39]", "result": -0.161}, {"measurement": "glycan array binding signal (z-score)", "setting": "[40]", "result": 0.052}, {"measurement": "glycan array binding signal (z-score)", "setting": "[41]", "result": -0.189}, {"measurement": "glycan array binding signal (z-score)", "setting": "[42]", "result": 3.39}, {"measurement": "glycan array binding signal (z-score)", "setting": "[43]", "result": 1.4}, {"measurement": "glycan array binding signal (z-score)", "setting": "[44]", "result": -0.004}, {"measurement": "glycan array binding signal (z-score)", "setting": "[45]", "result": 8.83}]}]}
